# Measured values taken from article PMC6919601, “Identification of Plasmodium dipeptidyl aminopeptidase allosteric inhibitors by high throughput screening” (PLoS ONE, 2019).
# Several values for one entry are separate records, joined by “and”; a condition that tells them apart may be missing. Equal entries are not always repeated. Among all 110,000 compounds or so, about 230 (0.21%) showed an effect of 50% or more. Some of the results follow.
# Molecular target: DPAP1 (Plasmodium falciparum, UniProt Q8IIJ9)
# Test: primary screen, percent inhibition; read by cleavage of a fluorogenic dipeptide substrate; higher = more effect of the substance
# Design: species or system P. falciparum D10 trophozoite lysates; single well
# 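Note: 30 min substrate incubation versus DMSO and 10 µM JCP410 controls.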
# Chain of DPAP1 (Q8IIJ9 whole entry, looked up): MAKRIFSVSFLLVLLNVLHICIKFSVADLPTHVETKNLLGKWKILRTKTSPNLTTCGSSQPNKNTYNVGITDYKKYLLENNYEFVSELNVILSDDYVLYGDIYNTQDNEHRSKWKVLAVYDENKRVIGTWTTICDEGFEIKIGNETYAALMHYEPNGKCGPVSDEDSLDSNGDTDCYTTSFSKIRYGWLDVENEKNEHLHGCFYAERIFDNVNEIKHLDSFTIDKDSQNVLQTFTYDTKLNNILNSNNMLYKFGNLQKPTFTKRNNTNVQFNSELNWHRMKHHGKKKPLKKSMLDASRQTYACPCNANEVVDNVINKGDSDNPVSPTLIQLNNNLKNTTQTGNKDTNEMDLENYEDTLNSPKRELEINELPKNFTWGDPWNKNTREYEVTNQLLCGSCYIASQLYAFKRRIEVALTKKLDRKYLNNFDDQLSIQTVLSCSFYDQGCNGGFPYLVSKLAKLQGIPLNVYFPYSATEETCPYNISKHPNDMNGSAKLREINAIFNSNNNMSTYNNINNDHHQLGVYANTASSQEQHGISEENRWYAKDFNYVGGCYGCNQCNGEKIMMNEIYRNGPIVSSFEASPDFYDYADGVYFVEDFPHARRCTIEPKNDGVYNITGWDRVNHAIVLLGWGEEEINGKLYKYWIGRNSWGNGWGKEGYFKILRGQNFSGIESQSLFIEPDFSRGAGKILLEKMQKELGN
row,Compound,% Inhibition @ 10 uM
1,COc1cccc(-c2nc(SCC(=O)NCc3ccco3)c(-c3ccccc3)[nH]2)c1,-1.58%
2,CCN(CC)CCCCOc1ccc(C)c(C)c1,4.54%
3,C1CCCC(NCCN2CCCCC2)CCC1,3.68%
4,Nc1ccc2nn(-c3ccc([N+](=O)[O-])cc3)nc2c1,-0.636%
5,CC(C)C1Oc2ccc(Cl)cc2C2CC(c3ccccc3O)=NN21 (centres unmarked),0.0719%
6,CC(=O)c1cccc(NS(=O)(=O)c2cc(C)ccc2C)c1,-2.6%
7,Cc1ccc(NC(=O)C2CCCC2)c(NC(=O)C2CCCC2)c1,1.39%
8,CCCCOc1ccc(-c2nc(/C=N/c3nccs3)c(O)o2)cc1,-1.65%
9,CC(=O)Nc1ccc(S(=O)(=O)Nc2cccc(C(F)(F)F)c2)cc1,-1.42%
10,Cc1cc(N2C(N)=C(C#N)C(c3cc(Cn4cncn4)cs3)C3=C2CCCC3=O)no1 (centres unmarked),1.76%
11,CCc1c(C)nc2ccc(OC)cc2c1S,-3.77%
12,CCCCNC(=O)CN(c1ccc(F)cc1)S(=O)(=O)c1ccc2c(c1)OCCO2,0.795%
13,Cc1ccc(NC(=O)C2c3ccccc3C(=O)N3CCc4ccccc4C23)nc1 (centres unmarked),1.08%
14,CN1C(C(=O)NCC23CC4CC(CC(C4)C2)C3)=CC(c2ccc(F)cc2)=NS1(=O)=O,-4.68%
15,O=c1oc(-c2ccco2)nc2sc3c(c12)CCC3,1.88%
16,CCN(CC)S(=O)(=O)c1cccc(C(=O)Nc2cccnc2)c1,4.41%
17,CCC(=O)Nc1cc2c(cc1C(=O)CC)OCCO2,2.38%
18,COc1ccc(CNC(=O)C2CCCN(C(=O)N(C)C)C2)c(OC)c1 (centres unmarked),3.66%
19,Cc1ccc(CNC(=O)Cn2nc(-n3cccc3)c3c(C)cc(C)nc32)cc1,1.12%
20,COc1ccccc1-c1c(C)nn2c(NCC3CCCO3)cc(C)nc12 (centres unmarked),-3.21%
21,O=C(c1ccccc1)C1CN(Cc2ccccc2)CCC1(O)c1ccccc1 (centres unmarked),3.16%
22,COc1ccc(C2CC(c3ccc(Cl)cc3)=NN2c2cccc(Br)c2)c(OC)c1 (centres unmarked),0.968%
23,COc1ccc(C2=N/C(=C\c3ccccc3F)C(=O)O2)cc1OC,2.92%
24,O=S(=O)(c1ccc(Cl)cc1)c1nnn2c1nc(N1CCCCC1)c1ccccc12,1.89%
25,CN1CCN(C(=O)C2CCN(C(=O)c3cc4sccc4n3C)CC2)CC1,-1.58%

row,Compound,% Inhibition @ 10 uM
1,CCOC(=O)C1=C(C)N(CCOC)C(=O)/C1=C\c1cc(OC)c(OC)c(OC)c1,16%
2,CCC(C)NCc1c(C(=O)O)n(Cc2ccc(C)cc2)c2cc(OC)ccc12 (centres unmarked),-7.24%
3,CC(C)(C)NC(=O)CCc1nc(-c2ccc(C(C)(C)C)cc2)no1,2.02%
4,COC(=O)C(O)(c1ccc(N)cc1)C(F)(F)F (centres unmarked),0.937%
5,Cc1ccc(C(CC(=O)N2CCC(C)CC2)N2Cc3ccccc3C2=O)cc1 (centres unmarked),4.6%
6,COc1ccc2c(c1)CC/C(=C\c1ccccc1C)C2=O,-2.12%
7,O=C(Cn1nnc2sc3c(c2c1=O)CCCC3)c1ccccc1,-0.946%
8,CCOc1ccccc1-c1cc(NC(=O)Cn2ncc3c2-c2cc(C)ccc2OC3)on1,2.53%
9,CCNC(=O)/C(=C\c1ccc(Br)cc1)NC(=O)c1ccccc1,3.96%
10,CC(C)C[C@H](NC(=O)c1cc(-c2ccco2)c(-c2ccco2)s1)C(=O)NCC#N,3.19%
11,Cc1cc(C)c(S(=O)(=O)N2CCOCC2)c(C)c1,1.63%
12,Cc1ccc(C2CCN(C(=S)NC(C)C)C2)cc1 (centres unmarked),-4.53%
13,CC(C)c1[nH]nc2c1C(c1ccc(F)c(Br)c1)C(C#N)=C(N)O2 (centres unmarked),-1.37%
14,O=c1c2c(n3nnnc3n1-c1ccccc1)-c1ccccc1CC21CCCCC1,1.27%
15,CCN(CC)CC#CC(O)(c1ccccc1)c1ccccc1,-2.7% and 3.25%
16,COc1cc(CCNC(=O)CCCn2c(=O)c3cccn3c3cccnc32)cc(OC)c1OC,3.24%
17,Cc1cc(=O)oc2c(C)c(OCC(N)=O)ccc12,-0.958%
18,Cc1ccc(-c2cn3c(n2)sc2cc(C(=O)NCCCN4CCCC4=O)ccc23)cc1,5.37%
19,O=C1N/C(=C/c2ccc(F)cc2)C(=O)N1c1cccc(Cl)c1,-5.05%
20,O=C(c1ccc(CS(=O)(=O)c2ccc(Br)cc2)o1)N1CCOCC1,-3.32%
21,CN(Cc1ccccc1)C(=O)CCn1c(=O)c2cccn2c2cccnc21,-5.37%
22,O=C(Cc1nc[nH]n1)NCCc1ccccc1,1.03%
23,C=CC/N=C1\SC(CC(=O)Nc2ccccc2C)C(=O)N1S(=O)(=O)c1ccc(C)cc1 (centres unmarked),-4.63%
24,Cc1cccc(-c2[nH]c3c(C#N)cnn3c2NCCC(C)C)c1,3.84%
25,O=C(c1cccnc1)N1CCN(Cc2ccc(Cl)cc2)CC1,-0.968%
